In the supplement of paper PMC3334620:
In all, about 33,000 sequences were measured (“E-score (-0.5 to 0.5)”: median about -0.016, highest 2% from about 0.32 on). The list shows a part of the results.

Biological target: T1, Stp1 (UniProt B3LFK1)
T1 sequence: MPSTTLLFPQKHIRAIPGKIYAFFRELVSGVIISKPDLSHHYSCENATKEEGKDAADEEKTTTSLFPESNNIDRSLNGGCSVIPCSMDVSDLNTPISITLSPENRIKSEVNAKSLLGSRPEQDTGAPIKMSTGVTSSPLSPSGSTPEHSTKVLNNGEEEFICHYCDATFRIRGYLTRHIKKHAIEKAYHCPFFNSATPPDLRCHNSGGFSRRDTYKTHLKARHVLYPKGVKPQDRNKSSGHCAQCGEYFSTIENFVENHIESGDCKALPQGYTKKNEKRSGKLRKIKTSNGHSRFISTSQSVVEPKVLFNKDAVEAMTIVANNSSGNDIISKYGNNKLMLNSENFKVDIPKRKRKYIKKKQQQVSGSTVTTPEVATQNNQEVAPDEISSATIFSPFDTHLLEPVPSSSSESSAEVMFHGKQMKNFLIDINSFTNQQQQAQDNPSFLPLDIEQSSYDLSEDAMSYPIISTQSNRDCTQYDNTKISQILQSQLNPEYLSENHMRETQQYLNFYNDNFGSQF
Assay: PBM E-score (8-mer binding enrichment) (E-score (-0.5 to 0.5)); higher = stronger / more preferred TF binding; most listed sequences are background and not binding sites
Conditions: protein concentration: 200 nM; construct: GST-full length
Procedure, shortened: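 GST-tagged yeast TFs (full-length or DNA-binding domain) were made by PURExpress in vitro transcription/translation and applied at about 100-200 nM to universal all-10-mer Agilent arrays. The arrays were made double-stranded by primer extension, on fresh or once-stripped slides. Bound protein was detected with fluorescent anti-GST, and scans were normalised with masliner. Each ungapped eight-base word, pooled with its reverse complement, received an E-score (modified Wilcoxon-Mann-Whitney statistic) from the Universal PBM Analysis Suite.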

Sequence	PBM E-score
TGCTCCAA	0.12
ACATGAAC	0.0617
ATCACAGG	-0.202
CTTCTGAC	-0.1
CAAGCGCA	-0.0229
CCATAGGC	-0.103
ACGAGCTG	-0.0141
CAGGCTGA	-0.157
CGCCTCTC	0.0325
GAATGCTC	-0.128
TAAAGACA	-0.0443
CCACCAAC	-0.0671
TCGCTACA	-0.25
ATGAATGC	0.137
ACCGGCGT	0.0951
ATGACAAT	0.183
CTCATAAC	0.0397
ATAGGTAA	-0.0396
ACGCCTTC	0.204
AGACCTCT	-0.252
CATGACCG	-0.196
CTTGAGAC	-0.142
CACGAATG	0.133
ACTGCACT	-0.0486
CGCAAAAC	0.178

Sequence	PBM E-score
AGGGTGAT	-0.195
CGAATCGC	0.0206
GCACCCGC	-0.0179
CTCACCGC	-0.161
AGACAGCT	-0.102
AGTTAATA	0.155
ACACAAGG	0.136
ATAGGTCG	-0.0394
GGGAAGAA	-0.0458
TCCTTCCA	-0.276
CATTATTC	0.154
ATCCTGCG	-0.0188
ATCCCCGG	-0.283
CTCTTAAG	0.0162
AGTCGCCA	-0.199
CTTTGAGC	-0.0965
CGAAGACC	-0.115
ATGCCCAT	-0.0356
ACTGCACA	-0.0746
CATCGTCG	-0.0468
GTTTTCCA	0.0851
ATGCTCCC	-0.339
TAGAGTCA	-0.261
CAAGGAAA	-0.0626
ATCGGACG	-0.18

Sequence	PBM E-score
GGTGAAGA	0.0112
ACTAGCGG	0.0202
GTGACGGA	-0.111
CAGCCGGG	-0.135
ATACAGCA	0.0146
TACTTGGA	0.119
AAAAGACT	-0.0853
AATGTCAT	-0.00238
GACGAGAC	-0.315
CGCTCTAA	0.11
CGCGACTA	0.0871
TATGTTAA	0.0905
GGCCCTGA	-0.146
CGCCAATC	0.00033
ACCGTCAG	-0.279
CAAACTCA	0.0872
TAGGGCCA	-0.0444
AAAAGTTG	0.171
TAGGCTGA	-0.0652
CATATATG	0.0581
CGCAGGAC	-0.121
CGAGGGGC	-0.111
ACCTTTCC	-0.194
ATTAGTTC	0.0233
CCCACTCG	-0.172

Sequence	PBM E-score
CACCAGGA	0.0475
AAGGTTGA	-0.127
CCGAACAA	0.117
CGTTCACA	0.0691
CTCAGCAG	-0.137
CTCTGCCC	-0.164
AAGGACTA	-0.222
GCCAGGGC	-0.143
AGCGGGCC	-0.0447
CGCCCTCC	0.0021
TACGGTGA	0.0598
AACTACAG	-0.0699
GAGCAAGC	-0.13
TCAGAAAA	-0.0863
AAGGTCAC	-0.152
CCCCTCTA	-0.313
CCTGCTGA	-0.107
ACTTCTTC	-0.0867
AATCTAGT	0.198
AGGGGGAA	-0.337
CGCTTGAC	-0.0561
GAGTTTAA	0.0967
GACCCTAA	-0.203
CGTATTAC	0.0586
ATTCAGGG	-0.0654

Sequence	PBM E-score
CGCATTGA	0.139
CTCTGAAC	-0.162
CGGATGAC	-0.0434
CGATCGCA	0.0463
AGGTCCGC	-0.178
ATGCAGGG	-0.117
AAAGCTAA	0.103
GGACCTGA	-0.151
CAGTCGGG	-0.14
TACGCACA	0.12
CCACTCGC	0.0516
ACAAATAA	0.226
CGCTGGGC	-0.0854
GAACCGGA	-0.0308
TGGGCGAA	-0.0429
CGACCGAC	-0.0518
TATTCGGA	0.107
CAAAGACA	0.0138
ACGTCCTA	-0.0505
GAACGCAC	0.099
AGGATGCA	-0.047
AGTAATCA	0.12
ATCCGTTA	0.178
TGGCCACA	-0.103
GCTATCAC	-0.12

Sequence	PBM E-score
GTACGCGA	-0.186
TCTCAGCA	-0.122
ACAAATTG	0.032
CCTGGTTA	-0.202
ATATCCGG	-0.0519
TCGAGCCA	0.0134
ATCCACTC	-0.0431
ACGGCATA	0.45
CTCCAGTC	-0.0847
CGGAAACG	-0.0276
AGTGAGGG	-0.325
ACCTTTTG	-0.0875
AAGGACTC	-0.169
AAACGTAG	-0.195
ACCCGCCT	-0.0919
ATTAGCGC	0.221
AACAGTTG	-0.335
CTATACTA	-0.0436
AGACCAAA	0.0439
ATGTTCGG	-0.0184
ACGTGATC	-0.009
CAAACATA	-0.094
AAGGAGAG	-0.317
GCAATTAA	0.045
GGCTATAC	-0.0397

Sequence	PBM E-score
AACTTTTG	0.207
AATCTCGC	0.215
AAGCACAA	0.173
CAGCATTA	-0.133
CTAGCCAG	-0.164
ATCATTCC	0.00642
GACCCCCA	-0.352
CCTCAACG	-0.182
CTACAAAC	0.062
GATGTGGA	-0.051
GAATCCGA	0.13
AGGTGAAC	-0.0912
ACCTAACT	0.0768
CTTCGTAC	-0.0412
AACAATCT	0.0449
TGACATAA	0.155
ACCATTAT	0.108
CGCGTCGC	0.128
AAGGTAAA	0.105
CACGATGG	-0.0468
GCACCTAA	0.0243
AGTCGGTG	-0.266
AATGCGAG	-0.0522
AGAAGTGG	-0.141
TATTAACA	0.185

Sequence	PBM E-score
TAAACGAA	0.154
ACATGTAT	0.0569
CGCAAGCA	-0.106
CGCCCTCA	-0.271
ATGAAGGC	0.0786
CTTAACCA	0.125
AGATGACC	-0.0479
GGACTAGA	-0.105
ACGCGAAT	-0.00535
CATGTGAC	0.025
AACATAGA	-0.151
AACTTCTT	0.0454
ACCGCAGG	0.128
CGTGCGAA	0.193
GCCTTCGC	0.226
CCATATCC	-0.0577
AGGGCGAT	0.0677
AGCAGACT	0.0691
TATATACA	0.1
ACCCGGCG	-0.0191
ACCCAAAA	0.103
GGTACGTA	-0.147
CAAGGCAA	0.264
CGCCTGAA	0.265
ACAATGAC	-0.0406

Sequence	PBM E-score
GAATTTAC	0.124
ATAGGTCA	0.00783
AGGGGGTG	-0.456
CACACCCC	-0.296
ACATACGT	0.0537
CAGACTGA	-0.0583
CTATTTCC	0.125
GCTCGAGC	0.0111
AATAACTG	0.0806
ACGGGAAA	0.178
GACAAGGC	0.186
ACAGGCTG	-0.222
GAATTGAA	-0.00546
CTAGCCTC	-0.162
ACCAGTGA	-0.0469
GGCGTGAA	0.156
ACTGAGCG	0.0212
AAGTCCAC	-0.117
GCGTATCA	0.221
CAGCGGCA	0.3
AATCGGAC	-0.167
CCACTGTA	-0.0895
ACGAATGA	0.0426
GGCTACAA	0.0408
TGACAGCA	0.101

Sequence	PBM E-score
CACACTAG	-0.0211
ACGACGTG	0.0302
CGACTTGA	-0.146
GCGGCATA	0.435
AACTCCTC	-0.139
CCGCCGTC	0.255
GCCCTACC	-0.0429
ATGGAGCA	0.055
GTTCAAGA	0.0574
ATCGGAAA	0.00784
GCCTACCC	-0.186
CGCGCAGA	0.22
ATGGTGGG	-0.164
AGGACATC	0.103
CAGGCGAG	-0.17
TAATGAAA	0.106
TACTTACA	0.0685
AACCTTAG	-0.109
AACTCTCG	-0.222
TGTGCTAA	0.0547
GGACTTTA	-0.121
TAAATACA	0.194
TCGTGAAA	-0.101
GGACCCGA	-0.149
GTGACAAA	-0.00152

Sequence	PBM E-score
AGCAGGGG	-0.405
ATGGTGCC	0.372
ACCAACGG	0.173
AGCGGTTG	-0.0874
CGGCAGAC	0.0714
AGACTTAT	-0.25
GCACCCGA	-0.0949
AAATAATA	0.226
AACGTGCT	-0.16
AGTATGCG	-0.00159
CCCCGCCA	-0.00909
AGGCGTCG	0.253
CAGTTATG	-0.0302
GAACTCAA	-0.254
CTGTGCTC	0.0867
CACAGTCC	-0.0372
AATTTTGT	0.0756
AGCACGAC	-0.156
ATCCTGGC	-0.109
AATTCAGC	-0.101
AGCGGCTG	0.0689
GAAAGGGA	-0.0802
GCACTAAC	0.042
GTGTCCAA	0.0717
GTAATTAC	0.17

Sequence	PBM E-score
ACCGTAGC	-0.138
CGTGCGGC	0.476
CAGAAGCG	0.106
GTTTTAAA	0.214
GCGGGTGA	0.0492
GGAGAATA	0.0992
GCCGCAGC	0.394
ACCTCATG	-0.208
ACGCTGGA	-0.0566
CTGTTATC	-0.0264
CCACGACA	-0.158
CAGGGAGG	-0.281
CGTCAACC	-0.141
GATATTTA	0.169
TAGTTGCA	-0.0873
ACCGCGCA	0.0261
GAACGAGA	-0.168
GTTGGCCA	-0.15
ACGGACGC	0.0689
CAACGCGA	0.0203
GAGACAGA	-0.0347
ATTCGGTC	0.00925
AAACGTCA	-0.167
CCACTACG	0.021
GGTGGGCA	-0.064

Sequence	PBM E-score
TTTACAAA	0.167
AGATGGTG	-0.0974
ATTGAAAT	0.123
ATTGCAGG	-0.0572
AGTATCAA	0.211
CCGCTTCG	0.0727
CGGTTGGA	-0.0808
AACAAGCA	-0.0118
CCGGCGCG	0.298
ATCATCAG	0.05
TATGTAAA	0.242
ACAGGTAT	-0.0623
AGAAGATG	-0.169
ACCACTCC	-0.105
CTACAGTC	-0.181
GTGCGAAC	-0.00318
AGCCTTTA	-0.091
ATCGCGGA	-0.192
TACGACAA	0.147
CGCGTACC	0.108
CCTTTATA	-0.11
CCCCGTGC	0.316
ACATAACG	0.0215
ACGATAGA	-0.141
ACGCACGT	0.0412

Sequence	PBM E-score
GACGCGAA	-0.149
AAAAGAAT	0.322
CCATGTTC	0.103
AGATCCGG	-0.113
CCCGCCGC	0.332
TGAAAGAA	0.211
GTTTGACA	0.0456
CTGCAGTA	-0.158
TCTAAAAA	0.0976
ACCTTTTC	0.0279
ATTTGCGA	0.174
CCTCCACG	-0.0808
CATCACCA	-0.0538
AAGGGGAG	-0.266
CGGGTAGA	-0.186
AAACAAAT	0.159
GCAAAACC	-0.0726
CTGAAACC	0.0334
AATCACAG	-0.147
